We go through 82 compounds from PubChem BioAssay AID1346428 (National Center for Advancing Translational Sciences (NCATS), 2018).

The structures appear in SMILES notation. Several values for one entry are separate records, joined by “and”; a condition that tells them apart may be missing. Identical values can stand only once. Out of some 48,000 compounds screened, about 1,200 (2.5%) were called active. Another 2% or so got no clear call; they are omitted.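 How the source made its calls: active means activation of at least 60% and not above a set upper limit (about 1 call in 100 departs from these limits); inconclusive means activation of 40% to 60%, or above that upper limit; inactive means activation under 40%.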 This is one part of the list.

The target of this test is Probable G-protein coupled receptor 32 (Homo sapiens) (UniProt O75388). Put plainly: qHTS for Agonists of Human Resolvin D1 Receptor DRV1. Further: 0% is about no effect. The settings on record: CHO-K1 GPR32 beta-arrestin PathHunter luminescence, 90 min; at 76.9 µM; active compounds read high; zero percent set by DMSO-only wells. Summed up: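 Luminescent readout of beta-Gal complementation quantifies ligand-induced beta-arrestin association with GPR32 in CHO-K1 cells; 90 min compound incubation at 37 °C, detection 1 h at room temperature.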
Sequence of UniProt O75388 (O75388 whole entry, looked up): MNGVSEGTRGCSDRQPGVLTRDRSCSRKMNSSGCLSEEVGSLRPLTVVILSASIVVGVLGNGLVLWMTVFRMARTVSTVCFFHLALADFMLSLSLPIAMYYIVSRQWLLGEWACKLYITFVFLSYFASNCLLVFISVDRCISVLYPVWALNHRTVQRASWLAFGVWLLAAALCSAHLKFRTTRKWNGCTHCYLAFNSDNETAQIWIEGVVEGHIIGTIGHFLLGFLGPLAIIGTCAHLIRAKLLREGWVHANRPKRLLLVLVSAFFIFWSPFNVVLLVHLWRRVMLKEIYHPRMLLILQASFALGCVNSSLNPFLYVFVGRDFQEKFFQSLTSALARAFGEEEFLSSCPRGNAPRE
A general note: In qHTS, concentration-response curves come from the screen itself.
In the case of `CC(=O)c1cccc(NC(=O)C2CCN(c3ncnc4c3nc3n4CCCCC3)CC2)c1`, the activation is inactive: 14.1%.

Take `O=C1c2ccccc2-c2onc3c(N4CCN(C5CCCCC5)CC4)cc(NCCO)c1c23`: the activation is inactive: -13%. With `O=C(O)c1ccccc1OP(=O)(O)O`, the activation was inactive: -1.01%. Regarding `COc1ccc(CCNC(=O)c2ccc3c(c2)CCN3S(C)(=O)=O)cc1OC`, the activation is inactive: 14.7%. Turning to `COc1ccc2c(CNCCc3ccc(SC)cc3)c(C(=O)O)n(Cc3ccc(F)cc3)c2c1`, the activation is active: 115%. As for `COc1ccc2c(c1)c(=O)c(C(=O)c1ccccc1)cn2CC(=O)Nc1ccc2c(c1)OCO2`, the activation is inactive: -3.2%. Consider `COc1ccc(Cn2cc(S(=O)(=O)c3ccc(C)cc3)c(=O)c3cc(F)ccc32)cc1`, for which the activation was inactive: -14.3%. The result for `Cc1nc(-c2ccc(S(=O)(=O)Nc3cc(Cl)ccc3C)cc2)co1` reads active: 82.3%. On to `O=c1c2ccccc2nc(/C=C/c2cccc3ccccc23)n1-c1ccc(F)cc1F`, for which the activation was inactive: -22%. `COc1ccccc1N1CCN(CCN(C(=O)c2ccc(I)cc2)c2ccccn2)CC1`: the activation is inactive: -4.28%.

Consider `CCS(=O)(=O)c1ncc(Cl)c(C(=O)N2CCN(c3ccc(OC)cc3)CC2)n1`, for which the activation was inactive: -19.3%. Consider `CCOc1ccc(NC(=O)c2oc3ccccc3c2NC(=O)COc2cccc(OC)c2)cc1`, for which the activation is inactive: 11.1%. Regarding `Cc1cccc(CN2C(=O)c3ccccc3Sc3ccc(C(=O)NCc4ccco4)cc32)c1`, the activation is inactive: -27.4%. Take `CCC(Sc1nc2c(sc3ccccc32)c(=O)n1CCc1ccc(OC)c(OC)c1)C(=O)N(CC)CC` (configuration not stated): the activation is inactive: -0.949%. The result for `CCC(CC)C(=O)Nc1nnc(S(=O)(=O)N2CCCCCC2)s1` reads inactive: -9.19%.

As for `Cc1ccc(CNC(=O)CCc2cn(C)c3ccccc23)cc1`, the activation was inactive: -18.2%. For `NS(=O)(=O)c1ccc(CCNC(=O)C2CCN(c3ncnc4c3nc3n4CCCCC3)CC2)cc1`, the activation was inactive: 1.28%. Consider `COC(=O)c1ccc(Nc2ncnc3c2cnn3C)cc1`, for which the activation was inactive: -9.36%.

With `CC1CCN(S(=O)(=O)N2CCC(C(=O)NCc3ccccc3Cl)CC2)CC1`, the activation is inactive: -9%. With `Cc1cn2c(=O)cc(COC(=O)c3ccc(NC(=O)c4ccc(F)cc4)cc3)nc2s1`, the activation was inactive: -21.9%. `CCOC(=O)c1ccc(NC(=O)c2cnn3c(=O)c4c(n(CC)c23)CCN(Cc2ccc(OC)cc2)C4)cc1`: the activation is inactive: -15.7%. Regarding `CCN(CC)c1ccc(NC(=O)c2cc(C)nc3c2c(C)nn3-c2ccc(C)cc2)c(C)c1`, the activation is inactive: -2.17%. Consider `CC(Sc1nccn1C)C(=O)Nc1ccccc1C#N` (configuration not stated), for which the activation is inactive: -13.1%.

Take `COc1ccc(CNC(=O)Cc2c(C)c3cc4c(C)coc4cc3oc2=O)cc1OC`: the activation was inactive: -11.9%. Take `COc1ccc(C2c3[nH]c4ccccc4c3CCN2C(=O)CCC2CCCC2)cc1` (configuration not stated): the activation is inactive: -40.7%. As to `CCN(CC)C(=O)c1sc2c(c1C)c(=O)n(-c1ccc(C)c(C)c1)c(=O)n2Cc1cc(=O)n2ccccc2n1`, the activation was inactive: -7.81%.

Turning to `COc1ccc(-c2nc3scc(CCNS(=O)(=O)c4ccc(Oc5ccccc5)cc4)n3n2)cc1OC`, the activation is inactive: -16.8%. With `Cc1ccsc1CCN1C(=O)N(c2ccccc2)C(=O)C1CC(=O)Nc1ccc(Cl)cc1` (configuration not stated), the activation was inactive: 1.05%.

Consider `CC(=O)c1cccc(NC(=O)Nc2sc3nc4n(c(=O)c3c2C)CCC(C)CC4)c1` (configuration not stated), for which the activation is inactive: -6.98%. As to `CCN(CC)C(=O)c1sc2c(c1C)c(=O)n(Cc1ccccc1)c(=O)n2Cc1ccccc1C`, the activation is inactive: -50.5%.

Consider `O=C(CNC(=O)c1ccccc1)OCc1cc(=O)n2nc(C3CCCCC3)sc2n1`, for which the activation was inactive: -3.24%. Take `Cc1ccc2sc(N(Cc3cccnc3)C(=O)CCS(=O)(=O)c3ccccc3)nc2c1C`: the activation was inactive: -14.8%.

For `COc1ccc(N2CCN(C(=O)CSc3nc(-c4ccc(C(C)C)cc4)no3)CC2)cc1`, the activation was inactive: -29%. The same measure for `Cc1cccc(Nc2ncnc3onc(-c4ccc(Cl)cc4)c23)c1C`: inactive: -0.829%; for `COc1ccc(C(=O)Nc2cccc(C(=O)OCc3cc(=O)n4nc(C5CC5)sc4n3)c2)cc1`: inactive: 36.6%.

On to `Cc1cc(F)ccc1NC(=O)C(c1ccccc1)N1Cc2ccccc2C1=O` (configuration not stated), for which the activation is inactive: -8.45%. As for `Nc1c(C(=O)Nc2ccc(F)cc2)sc2nc(-c3cccs3)cc(C(F)(F)F)c12`, the activation was inactive: 2.87%. The result for `COC(=O)c1ccc([C@@H]2Nc3c(OC)ccc(C)c3[C@@H]3C=CC[C@@H]32)cc1` reads inactive: -17%; that for `Cc1ccc(-n2c(=O)c3cccnc3n2CC(=O)NCc2ccc(Cl)cc2)cc1`, inactive: 14.5%. As for `Cc1ccc2oc3c(c(=O)c2c1)C(c1ccc(O)cc1)N(CCCN(C)C)C3=O` (configuration not stated), the activation was inactive: 8.86%. As for `CCn1c2ccccc2c2cc(CN3CCN(Cc4ccc(Br)cc4)CC3)ccc21`, the activation is inactive: -15.9%. As to `CC1N=C2c3ccccc3N=C(SCC(=O)NCCc3ccc(Cl)cc3)N2C1=O` (configuration not stated), the activation was inactive: -3.54%. Turning to `O=C(CCS(=O)(=O)c1cc2c(cc1Cl)NC(=O)CO2)NCc1ccc(Cl)cc1`, the activation was inactive: 1.11%.

Turning to `O=c1cc(-c2ccccc2)c2ccc3c(c2o1)CN(Cc1cccc(Cl)c1)CO3`, the activation is inactive: -30.6%. In the case of `COc1ccc2[nH]cc(CCN=C(NC(=O)c3ccccc3F)Nc3nc(C)cc(C)n3)c2c1`, the activation was inactive: -1.13%. Consider `CCOc1ccc(CC(=O)Nc2cccc(-c3nc4cccnc4s3)c2C)cc1`, for which the activation was inactive: -21.5%. As for `Cc1ccccc1NC(=O)Cn1c(=O)n(CCCC(=O)NCc2ccc3c(c2)OCO3)c(=O)c2ccccc21`, the activation is inactive: -5.98%. Regarding `Cc1c(C(=O)Nc2ccccc2Br)oc2ccc(S(=O)(=O)N3CCCCCC3)cc12`, the activation is inactive: -6.61%. The result for `C=C(C)CSc1nc2sc3c(c2c(=O)n1Cc1ccccc1)CC(C)(CC)OC3` (configuration not stated) reads inactive: -31.7%.

Consider `Cc1ccc(-c2cn3cccnc3n2)cc1NC(=O)C(C)(C)Oc1ccc(Cl)cc1`, for which the activation is inactive: -21.8%.

For `COc1ccc(Cl)cc1NC(=O)c1c(NCc2ccc(C)o2)sc2c1CCC(C)C2` (configuration not stated), the activation was inactive: -10.9%.

In the case of `C[C@]12CCC(=O)C=C1[C@@H]1C[C@@H]1[C@H]1[C@@H]3[C@@H]4C[C@@H]4[C@@]4(CCC(=O)O4)[C@@]3(C)CC[C@@H]12`, the activation was inactive: 36.2%.

As to `CCC(C)NC(=O)CN1C(=O)c2cccnc2Sc2ccccc21` (configuration not stated), the activation is inactive: -19.8%. The result for `COc1cccc(NCc2cccn2-c2nnc(N3CCC(C)CC3)s2)c1` reads inactive: -2.78%. As for `COc1ccccc1NC(=O)CSc1ncc2c(n1)-c1ccccc1N(Cc1ccccc1C)S2(=O)=O`, the activation is inactive: -10.8%.

Consider `Cc1ccc(CN(C(=O)c2ccc(C(C)(C)C)cc2)c2ccccn2)o1`, for which the activation was inactive: 1.24%. For `Cc1c(N)cccc1C(F)(F)F`, the activation is inactive: 13%.

`CCOc1ccccc1CNC(=O)c1sc2ncccc2c1-n1cccc1`: the activation was inactive: -2.68%. In the case of `CC(C)CC(=O)Nc1ccc2nc(SCC(=O)N3CCc4ccccc43)sc2c1`, the activation is inactive: 20.3%. Regarding `CCOC(=O)C1CCCN(S(=O)(=O)c2cc(-c3cc(C)no3)ccc2OC)C1` (configuration not stated), the activation is inactive: 30%.

Take `CCOc1cc(C2c3c(-c4cc(C)ccc4O)n[nH]c3C(=O)N2CCCOC(C)C)ccc1O` (configuration not stated): the activation is inactive: -20.6%.

`O=C(COC(=O)c1cc(-c2cccs2)nc2ccccc12)c1ccc(F)cc1`: the activation was inactive: -9.47%.

On to `O=C(CSc1nnc(-c2ccc3c(c2)OCO3)o1)Oc1ccccc1`, for which the activation was inactive: -2.79%. The same measure for `COc1cccc(Cn2c(SCC(=O)N3CCN(c4ccc(F)cc4)CC3)nc3ccccc32)c1`: inactive: -12.2%; for `CCn1ccc2cc(S(=O)(=O)N3CCCN(C(=O)Nc4ccccc4F)CC3)ccc21`: inactive: 11.2%; for `CCC(C)n1c(=O)c2sccc2n2c(CCCC(=O)N3CCN(c4ccccc4)CC3)nnc12` (configuration not stated): inactive: -15.2%.

For `CCOc1ccc(-n2c(SCC(=O)Nc3cc(C)ccc3C)nc3c([nH]c4ccccc43)c2=O)cc1`, the activation is inactive: -3.53%. Take `O=C(Cn1c(=O)n(Cc2nc(-c3ccccc3)no2)c(=O)c2cc3c(cc21)OCO3)Nc1ccccc1`: the activation was inactive: -13.8%. For the compound `COc1ccc(CNC(=O)c2sc3nc4n(c(=O)c3c2C)CCCC4)cc1`, the activation was inactive: -26.9%. On to `O=C(Nc1cc(-c2ccccc2)sc1C(=O)O)c1cccc(F)c1`, for which the activation is active: 110%.

`Cc1ccc(Cn2cc(S(=O)(=O)c3cccc(C)c3)c(=O)c3cc(F)c(N4CCOCC4)cc32)cc1`: the activation is inactive: -10.3%. On to `COc1cccc(Cc2nc3ccccc3nc2SCC(=O)Nc2cccc(C)c2)c1`, for which the activation was inactive: -21.8%.

With `COc1ccc2cc([C@H](C)C(=O)O)ccc2c1`, the activation is inactive: 39.8% and inactive: -4.58%. Turning to `O=C(Cc1ccccc1)Nc1sc2c(c1C(=O)Nc1ccccc1Cl)CCCCC2`, the activation is inactive: -10.4%.

On to `COc1ccc2c(c1)CCc1c(C(=O)Nc3cc(OC)c(Cl)cc3OC)noc1-2`, for which the activation is inactive: 14%.

As for `COC(=O)c1cc(Nc2nc3ccccc3nc2NS(=O)(=O)c2ccc(C)cc2)ccc1Cl`, the activation is active: 98.8%. Take `CC(C)c1ccc(NC(=O)CSC2=Nc3ccccc3C3=NC(CCC(=O)NC4CCCCC4)C(=O)N23)cc1` (configuration not stated): the activation is inactive: -17.1%. The same measure for `O=C(COc1ccccc1F)Nc1ccc2nc(SCC(=O)N3CCc4ccccc43)sc2c1`: inactive: -9.99%; for `COc1ccc(NC(=O)CCc2c(C)nc3c(c2C)c(=O)n(C)c(=O)n3C)c(OC)c1`: inactive: -6.15%; for `CCc1ccccc1NC(=O)Cn1nc2c3cc(F)ccc3n(Cc3cccc(C)c3)cc-2c1=O`: inactive: -16.6%. On to `CCOC(=O)c1c(NC(=O)c2cc(-c3ccccc3OC)on2)sc(C)c1C`, for which the activation was inactive: -6.42%.

With `CC1=C(C(=O)Nc2cccnc2)C(c2ccc(F)cc2)n2nc(-c3cccc(C)c3)nc2N1` (configuration not stated), the activation was inactive: -8.97%.
